The text below walks through data of PubChem BioAssay AID485344 (National Center for Advancing Translational Sciences (NCATS), 2010).

Hit rate of the full screen: of about 340,000 compounds, about 6,900 (2%) were called active. Cut-off read from the data, not from the text of the source: active = inhibition above about 30%; inactive = below that, where a call was filed. This is a selection; strong and weak results do not stand in their true shares. The source gives no active or inactive call for entries shown without one.

Sequence of UniProt P14416 (P14416 whole entry, looked up): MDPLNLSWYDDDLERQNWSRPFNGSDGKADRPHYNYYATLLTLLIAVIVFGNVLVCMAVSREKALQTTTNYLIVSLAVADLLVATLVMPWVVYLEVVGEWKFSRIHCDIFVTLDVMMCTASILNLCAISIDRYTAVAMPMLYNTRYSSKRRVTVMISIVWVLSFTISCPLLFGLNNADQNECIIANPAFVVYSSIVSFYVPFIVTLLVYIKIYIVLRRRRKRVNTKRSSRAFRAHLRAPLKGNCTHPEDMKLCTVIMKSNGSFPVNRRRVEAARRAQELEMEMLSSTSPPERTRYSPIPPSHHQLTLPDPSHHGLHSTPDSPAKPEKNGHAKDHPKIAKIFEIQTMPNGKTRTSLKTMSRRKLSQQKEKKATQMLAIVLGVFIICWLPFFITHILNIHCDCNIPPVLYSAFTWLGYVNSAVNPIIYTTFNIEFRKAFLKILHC

This assay concerns the target D(2) dopamine receptor (Homo sapiens) (UniProt P14416). The assay is described as follows: HTS Assay for Allosteric Antagonists of the Human D2 Dopamine Receptor: Primary Screen for Antagonists. Note: 0% is about no effect. The note with it: HEK293 TREx D2 cells, calcium flux, dopamine EC80; at 10 µM; stronger effect = higher value. In short, it runs like this:
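Antagonism is scored as inhibition of an EC80 dopamine-evoked calcium signal in a force-coupled, tetracycline-inducible HEK293 T-REx D2 line, with compound present 180 s before agonist.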
As for `CCOC(=O)c1ccc(N2C(=O)c3n[nH]c(-c4cccs4)c3C2c2cccc(O)c2)cc1` (stereo not given), the inhibition amounted to 1.97%.
For `COc1ccc(N2CCN(C(=O)CCCCn3c(=O)[nH]c4ccsc4c3=O)CC2)cc1`, the inhibition was -9.66%.
With `COc1ccc(CNC(=O)c2cc(-c3ccc(OC)c(OC)c3)nc3n[nH]c(-c4ccc(C)cc4)c23)cc1`, the inhibition amounted to 12.1%.
The result for `CC(=O)c1ccc(NC(=O)CSc2nnc3c(n2)[nH]c2ccccc23)cc1` reads 2.3%.
The result for `O=C(CSc1ccc2nc(-c3ccccc3)cn2n1)Nc1ccccc1` reads -1.8%.
`O=C(Nc1ccc(F)cc1F)c1ccc(-n2cnc3cccnc32)cc1`: the inhibition is 4.18%.
For the molecule `c1ccc(-c2csc(=Nc3cccnc3)n2CC2CCCO2)cc1` (stereo not given), the inhibition is active: 30.3%.
For `CC(C)=C(NC(=O)c1ccccc1)C(=O)NC(Cc1ccccc1)C(=O)O` (stereo not given), the inhibition was active: 38.9%.
Then `CCOCCCNC(=O)CN1C(=O)COc2ccc(S(=O)(=O)N3CCOCC3)cc21`, with -15.6%; and `COc1ccc(-c2cc(C(F)(F)F)nc(SCCC(=O)Nc3ccc(F)cc3F)n2)cc1`, with -5.52%.
The result for `COc1ccc(CNC(=O)c2cc3cccc4c3n2CC(C)S4)cc1` (stereo not given) reads 8.32%; that for `CCOc1ccc(NC(=O)CSc2nc3ccccc3nc2N2CCOCC2)cc1`, 14.8%; that for `O=c1c(N2CCN(c3ccc(F)cc3)CC2)csc2ccc(F)cc12`, -0.247%.
The result for `COc1ccc(S(=O)(=O)NC(C)(C)CO)cc1-c1nnc2c3ccccc3c(C)nn12` reads -2.15%.
Take `CC(C)CC(=O)Nc1cccc(-c2cn3cccnc3n2)c1`: the inhibition was -12.8%.
For the molecule `CCCn1c(=O)c2sccc2n2c(CCCC(=O)N3CCN(c4ccc(OC)cc4)CC3)nnc12`, the inhibition was -12.8%.
In the case of `CC1CCN(S(=O)(=O)c2ccc3nc(Nc4cccc(F)c4)ccc3c2)CC1`, the inhibition was 3.34%.
For the molecule `Cc1nn(-c2cccc(Cl)c2)c2nc(-c3cccnc3)cc(C(F)(F)F)c12`, the inhibition was -8.4%.
The result for `CC(C)CNC(=O)C(=O)Nc1c2c(nn1-c1ccc(Cl)cc1)CSC2` reads 13.1%.
On to `CC(=O)c1ccc(NC(=O)CSc2nccn2C2CCCC2)cc1`, for which the inhibition is 4.26%.
The result for `Cc1cccc(N2CCN(c3ccc4cc(S(=O)(=O)N5CCC(C)CC5)ccc4n3)CC2C)c1` (stereo not given) reads 2.74%; that for `CCC(Sc1nc2nccnc2c(=O)n1Cc1ccc(Cl)cc1)C(=O)NC1CCCCC1` (stereo not given), 8.28%.
On to `COc1cccc(CNc2sc3c(c2C(=O)Nc2ccc(OC)cc2OC)CCC3)c1`, for which the inhibition is -19%.
As to `Cc1ccc(NC(=O)CCCn2c(=O)c3cccn3c3cccnc32)c(C)c1`, the inhibition is -4.54%.
As for `COc1ccc(-n2ccn3c(CC(C)(C)CC(=O)O)nnc3c2=O)cc1`, the inhibition was -12.6%.
The result for `COc1ccccc1N1CCN(CC(=O)Nc2cc(F)ccc2C)CC1` reads active: 85.7%.
Take `O=c1c(-c2cc(-c3ccccc3)nc3c2COc2ccc(Cl)cc2-3)coc2ccccc12`: the inhibition was -8.41%.
Then `Cc1ccc(-c2cnc(C3CC3)o2)cc1S(=O)(=O)Nc1ccc(F)cc1Cl`, with -7.03%; and `CCOc1ccc(NC(=O)c2cnn3c2NC(C)=C(C(=O)Nc2ccc(Cl)cc2)C3c2ccc(OC)c(OC)c2)cc1` (stereo not given), with 11.3%; and `COc1ccc(C)cc1NC1(c2ccccc2)C(=O)c2ccccc2C1=O`, with -12.2%.
The result for `O=C(Nc1ccc(NC(=O)C2CC2)cn1)c1ccccc1` reads active: 35.9%; that for `COc1ccc(OC)c(N(C)S(=O)(=O)c2ccc3c(c2)NC(=O)CC(=O)N3)c1`, -10.4%.
With `COc1ccc2nc(N3CCN(C(=O)CS(=O)(=O)c4ccc(C)cc4)CC3)sc2c1`, the inhibition is -13.9%.
For `COc1cccc(NC(=O)c2oc3ccccc3c2NC(=O)c2ccc(OC(C)C)cc2)c1`, the inhibition was -9.15%.
Then `COc1ccc2c(CNCCc3ccco3)c(C(=O)O)n(Cc3ccc(F)cc3)c2c1`, with -15%; and `CCOC(=O)c1ccc(N2C(=O)c3[nH]nc(-c4ccccc4)c3C2c2ccc(C(C)C)cc2)cc1` (stereo not given), with 7.4%; and `CCn1cc(C(=O)NCc2ccc(Cl)cc2)c(=O)c2cc(S(=O)(=O)N3CCc4ccccc4C3)ccc21`, with 3.75%.
Then `CC(=O)Nc1nonc1-c1nnc(SCC(=O)Nc2c(C)cccc2C)n1-c1ccccc1`, with 8.09%; and `CC(C)c1ccc(NC(=O)C(Cc2ccccc2)n2cccc2)cc1` (stereo not given), with -13.9%; and `Cc1ccc2c(CC(=O)Nc3c(C(=O)c4ccc(F)cc4)oc4ccccc34)coc2c1C`, with -19.2%.
The result for `Cc1ccc(C)c(S(=O)(=O)c2cn(Cc3ccccc3)c3cc(N4CCCC4)c(F)cc3c2=O)c1` reads -11.1%; that for `CCOc1ccc(NC(=O)Cn2c(=O)n(CC(=O)NCCc3ccccc3)c(=O)c3sccc32)cc1`, 2.07%.
For `COC(=O)c1cc(CN2CCN(c3ccccc3C)CC2)ccc1O`, the inhibition was active: 57.9%.
With `CC(=O)N1CCCc2cc(S(=O)(=O)Nc3ccc(OC(F)(F)F)cc3)ccc21`, the inhibition was -19.1%.
The result for `Cc1cccc(C)c1NC(=O)c1cc(S(=O)(=O)N2CCCc3ccccc32)ccc1F` reads -26%.
As for `COc1cccc(C(=O)NCCc2sc(-c3cccc(C)c3)nc2C)c1`, the inhibition was determined as 10.7%.
Then `CCOC(=O)c1ccc(NC(=O)c2sc3nc4n(c(=O)c3c2C)CCC4)cc1`, with 10.6%.
As to `CCN1C(C(=O)c2ccccc2)=C(NC(=O)c2ccc(Cl)cc2)c2ccccc2S1(=O)=O`, the inhibition was -6.8%.
Then `CCN1C(=O)[C@H]2[C@@H](c3ccc(-c4ccc(C(C)=O)cc4)c(OC)c3)N[C@@](Cc3ccccc3)(C(=O)OC)[C@H]2C1=O`, with active: 32.1%; and `COc1cc(Cl)c(C)cc1NC(=O)CCn1cnc2onc(-c3ccc(F)cc3)c2c1=O`, with -1.63%.
Then `CC(CNC(=O)Cn1c(-c2cccs2)cc2cc(Cl)ccc21)c1ccccc1` (stereo not given), with -1.95%; and `COCC(C)NS(=O)(=O)c1ccc(N2CCCCS2(=O)=O)cc1` (stereo not given), with 3.47%; and `CC1=C(C(=O)Nc2ccc(C)cc2C)C(c2cccs2)n2nc(SCc3ccc(Cl)cc3)nc2N1` (stereo not given), with 0.666%.
For the molecule `CC(=O)c1ccc(NC(=O)CC2Sc3ccccc3NC2=O)cc1` (stereo not given), the inhibition is -15.3%.
Take `COc1ccc(-c2csc3ncnc(Nc4cccc(F)c4)c23)cc1`: the inhibition was -6.09%.
With `Cc1nc2nc(NC(=O)C(C)C)[nH]n2c(=O)c1Cc1ccccc1`, the inhibition amounted to 7.19%.
Then `Cc1ccc(NC(=O)C2CCN(C(=O)c3cnn(-c4ccccc4)c3-n3cccc3)CC2)cc1Cl`, with 5.5%; and `Cc1ccc(Nc2nc(C(N)=O)c(NC(=O)c3ccccc3Br)s2)cc1`, with 6.61%; and `CCCN(CCC)c1cc(C)nc2nc(-c3ccc(Cl)cc3)nn12`, with -13.1%.
Then `Cc1ccc(C(=O)CSc2nc(-c3ccccc3)nc3c2CCCC3)cc1C`, with 8.25%; and `COC(=O)c1ccccc1NC(=O)N1CCN(C/C=C/c2ccccc2)CC1`, with active: 35.2%.
On to `CCc1ccc(NCc2cc3cc(OC)c(OC)cc3n(CC(=O)Nc3ccc(F)cc3)c2=O)cc1`, for which the inhibition was -16.6%.
The result for `Cc1cccc(NC(=O)CC2C(=O)OCCN2Cc2ccccc2)c1` (stereo not given) reads -3.48%; that for `CC1=C(c2ccc(F)cc2)S(=O)(=O)NC1=NCc1ccccc1Cl`, 4.23%; that for `CC(C)(C)C(=O)Nc1ccc2nc(SCc3ccccc3)sc2c1`, 0.707%.
The result for `O=C(c1ccco1)N(Cc1ccccc1)Cc1ccccn1` reads active: 56.6%; that for `COc1cccc(CNC(=O)CCn2c(=O)c3cccn3c3cccnc32)c1`, 10.8%; that for `Cc1ccccc1C(=O)NC(=O)Nc1ccc(-n2nc(C(F)(F)F)cc2C(F)(F)F)cc1`, 1.5%.
Then `COc1ccc2cc(CNc3ccccc3)c(=O)n(CC(=O)Nc3ccc(C(C)=O)cc3)c2c1`, with 1.46%.
`COc1ccc(-c2cn3nc(N4CCCC(C(=O)NCCCOC(C)C)C4)sc3n2)cc1` (stereo not given): the inhibition was -7.49%.
Then `CCC(=O)N1CCc2cc(S(=O)(=O)NC(Cc3ccccc3)C(=O)NCc3cccc(OC)c3)ccc21` (stereo not given), with 3.71%.
Then `Cc1ccc(Cl)cc1NC(=O)C(NS(=O)(=O)c1ccc2c(c1)CCC(=O)N2)c1ccccc1` (stereo not given), with -9.69%; and `Cc1ccc2c(c1)c1c(c(=O)n(-c3ccccc3C)c(=O)n1Cc1cccc(F)c1)n2C`, with -3.82%.
Then `O=C(CCn1c(=O)sc2ccccc21)NCCC1=CCCCC1`, with active: 37.5%; and `CC1=NN(c2cccc(F)c2)C(=O)/C1=C/c1ccc(N(C)C)cc1`, with active: 31.6%.
As for `COc1ccccc1N1CCN(C(=O)CSc2nc(C)cc(=O)[nH]2)CC1`, the inhibition worked out at 23%.
The result for `O=C(NCc1cccnc1)c1ccc(-c2cccc(Cl)c2Cl)o1` reads active: 59.1%.
Turning to `CC(C)Nc1cc(N2CCN(C3CCCCC3)CC2)c2noc3c2c1C(=O)c1ccccc1-3`, the inhibition is -2.47%.
Then `CCOc1ccc(CNC(=O)C(C)n2ncn3cccc3c2=O)cc1` (stereo not given), with 20%; and `O=C(c1ccc(Br)cc1)N1CCC(c2nc3ccccc3s2)CC1`, with -2.02%; and `CCOc1ccccc1CNC(=O)C1=C(C)C(=O)OC12CCN(C(C)=O)CC2`, with 4.31%.
The result for `O=C(N/N=C/c1ccc(N2CCCC2)c([N+](=O)[O-])c1)c1cccnc1` reads active: 40.6%; that for `COc1ccc(C(=O)Cn2c(=O)n3nc(CCn4nc(C)cc4C)nc3c3cc(OC)c(OC)cc32)cc1`, -8.72%.
With `Cc1ccc(S(=O)(=O)N2CCOCC2)cc1NC(=O)CNCc1ccccn1`, the inhibition was active: 32.7%.
The result for `OC(COc1cc(Cl)c(Cl)cc1Cl)CN1CCN(c2ncccn2)CC1` (stereo not given) reads active: 36.9%; that for `COc1ccc(S(=O)(=O)Nc2c(C)n(C)n(-c3ccccc3)c2=O)cc1Br`, -1.55%.
In the case of `CN(CC(=O)Nc1cccc(S(=O)(=O)N2CCCCC2)c1)Cc1ccc(F)cc1`, the inhibition was active: 32%.
Consider `CC(=O)c1cccc(NC(=O)C2CCN(c3nnc(-n4cccc4)s3)CC2)c1`, for which the inhibition was -3.51%.
The result for `CCCN1C(=O)c2[nH]nc(-c3ccc(F)cc3)c2C1c1ccc(O)c(OCC)c1` (stereo not given) reads 16.1%; that for `Cc1cc2c(n1-c1ccc(C(=O)NCc3cccc(Br)c3)cc1)CCC(C)C2` (stereo not given), 22.1%.
In the case of `Cc1ccccc1Cn1c(=O)n(CCCCC(=O)NCc2ccc3c(c2)OCO3)c(=O)c2ccccc21`, the inhibition is -10.3%.
With `CCOC(=O)c1c(-c2ccccc2)oc2ccc(OCc3ccc(C)cc3)cc12`, the inhibition came to 4.32%.
Then `Cc1ccc(N2C(=O)CSC23C(=O)Nc2ccccc23)cc1F` (stereo not given), with 3.6%; and `Cc1cccc(-c2nc3c4ccccc4n(CC(=O)Nc4cc(F)ccc4F)c(=O)n3n2)c1`, with 22%.
Turning to `C=CCn1c(C)cc(C(=O)COC(=O)/C=C/c2cccc(OC)c2)c1C`, the inhibition is active: 42%.
